Screen size: about 310,000 compounds; about 2,200 (0.71%) showed an effect of 50% or more. The effect is printed as a negative number. The list shows a part of the results.
What follows are compounds tested against human ether-à-go-go-related gene (hERG) potassium channel (human, UniProt Q12809) (assay: primary screen, population patch clamp on CHO cells stably expressing hERG).
human ether-à-go-go-related gene (hERG) potassium channel, sequence (Q12809 whole entry, looked up): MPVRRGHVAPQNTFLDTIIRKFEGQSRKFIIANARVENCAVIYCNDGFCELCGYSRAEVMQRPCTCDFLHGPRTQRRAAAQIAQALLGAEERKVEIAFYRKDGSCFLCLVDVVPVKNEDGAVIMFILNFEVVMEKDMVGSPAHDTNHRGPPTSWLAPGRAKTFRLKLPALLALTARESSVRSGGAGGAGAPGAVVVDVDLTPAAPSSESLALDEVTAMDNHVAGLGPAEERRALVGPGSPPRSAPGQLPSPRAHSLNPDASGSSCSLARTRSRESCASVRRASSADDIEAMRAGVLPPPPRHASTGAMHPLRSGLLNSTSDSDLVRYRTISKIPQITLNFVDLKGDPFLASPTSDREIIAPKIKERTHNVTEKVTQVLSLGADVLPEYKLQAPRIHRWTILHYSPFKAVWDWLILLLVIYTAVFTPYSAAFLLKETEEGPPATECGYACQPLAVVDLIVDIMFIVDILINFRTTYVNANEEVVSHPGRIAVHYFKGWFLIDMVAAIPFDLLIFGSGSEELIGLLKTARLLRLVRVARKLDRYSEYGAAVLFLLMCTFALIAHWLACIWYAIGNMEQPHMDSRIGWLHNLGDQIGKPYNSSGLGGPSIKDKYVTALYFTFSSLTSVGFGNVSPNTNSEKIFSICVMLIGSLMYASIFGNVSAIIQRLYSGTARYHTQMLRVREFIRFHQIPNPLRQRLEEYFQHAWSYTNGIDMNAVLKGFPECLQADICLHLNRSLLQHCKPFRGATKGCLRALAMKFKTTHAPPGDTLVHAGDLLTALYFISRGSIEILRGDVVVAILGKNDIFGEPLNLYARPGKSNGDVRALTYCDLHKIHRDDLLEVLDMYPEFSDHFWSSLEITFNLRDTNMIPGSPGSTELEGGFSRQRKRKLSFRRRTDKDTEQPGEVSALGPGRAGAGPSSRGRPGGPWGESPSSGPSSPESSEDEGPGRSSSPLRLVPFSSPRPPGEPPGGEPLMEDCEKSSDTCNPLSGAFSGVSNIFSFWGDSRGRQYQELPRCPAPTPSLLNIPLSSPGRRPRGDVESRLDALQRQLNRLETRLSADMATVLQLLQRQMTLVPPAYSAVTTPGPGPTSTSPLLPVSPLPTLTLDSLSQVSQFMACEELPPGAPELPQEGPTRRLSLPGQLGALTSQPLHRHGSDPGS

Going from CSC(=Nc1cccc(C)c1)NC#N to Cc1cccc(NC(=O)N2CCCCCC2)c1, the “hERG current change (%, negative = inhibition) at 1uM” value falls from 13.2% to 0.499%.

Compared with O=C(N/N=C/c1sc(=O)n(-c2ccccc2)c1Cl)c1ccccc1, O=C(Cn1cccc1C(=O)c1ccccc1)NCc1ccccc1 is higher in “hERG current change (%, negative = inhibition) at 1uM” value: 2.05% for the first, 13% for the second.

First: COc1cc(C)ccc1OCCCOc1ccccc1Br
Second: Cc1cccc(C)c1OCCOC(=O)c1n[nH]c2ccccc12
The “hERG current change (%, negative = inhibition) at 1uM” value of the first is higher: 12.3% for the first, -1.07% for the second.

First: COc1ccccc1/C=C/C1(C(=O)NC2CCCC2)CC(=O)N1c1ccc(C)cc1 (stereo not shown)
Second: COc1ccc(NC(=O)CN(C)C(=O)C2CC(=O)N(c3ccc4c(c3)OCCO4)C2)cc1 (stereo not shown)
The “hERG current change (%, negative = inhibition) at 1uM” value of the first is lower: -1.18% for the first, 8.76% for the second.

Going from CC(C)CN1CCN(Cc2cccn2-c2ccc(Cl)cn2)CC1CCO (stereo not shown) to Cn1c(CO)cnc1SCC(=O)c1ccc(Cl)cc1, the “hERG current change (%, negative = inhibition) at 1uM” value rises from -20.6% to 15.3%.

First: CCCC(=O)Nc1ccccc1NC(=O)c1cc(OC)c(OC)c(OC)c1
Second: COc1cc2c(cc1OC)CN(Cc1ccc(OC)c(C)c1OC)CC2
The “hERG current change (%, negative = inhibition) at 1uM” value of the first is higher: 14.3% for the first, -18.8% for the second.

Going from COC(=O)CN1C(=S)N(Cc2ccccc2)C(=O)C1CC(=O)Nc1ccc(OC)cc1 (stereo not shown) to Cc1ccccc1NC(=O)COC(=O)CCc1ccccc1, the “hERG current change (%, negative = inhibition) at 1uM” value rises from -3.35% to 14.3%.

Compared with O=C1N=C2SCCN2/C1=C\c1ccccc1Cl, Cc1ccc(N=c2ssnc2Cl)cc1 is higher in “hERG current change (%, negative = inhibition) at 1uM” value: 5.64% for the first, 18.3% for the second.

First: Cc1ccc(S(=O)(=O)N(C)C)cc1NC(=O)COC(=O)C1CCCC1
Second: CCN(CC)S(=O)(=O)c1ccc(NC(=O)CCC2CCCCC2)cc1
The “hERG current change (%, negative = inhibition) at 1uM” value of the first is lower: -0.454% for the first, 1.47% for the second.

First: CC(C)C(C)NC(=O)CN1C(=O)NC(c2ccccc2)(c2ccccc2)C1=O (stereo not shown)
Second: COc1ccccc1CCNC(=O)CCn1nc(C)c2c(C)n(-c3ccccc3)nc2c1=O
The “hERG current change (%, negative = inhibition) at 1uM” value of the first is lower: 7.23% for the first, 11.6% for the second.

Going from CC12CCC(C(=O)NCCCN3CCOCC3)(OC1=O)C2(C)C (stereo not shown) to O=C(NCCCN1CCOCC1)C1(c2ccccc2)CCCC1, the “hERG current change (%, negative = inhibition) at 1uM” value rises from 14.4% to 16.7%.

First: CC1c2ccsc2CCN1C(=O)NC(=O)c1ccc(Cl)cc1 (stereo not shown)
Second: O=C(/C(=C/O)N=Nc1ccccc1)c1ccc(Cl)cc1
The “hERG current change (%, negative = inhibition) at 1uM” value of the first is lower: 8.35% for the first, 11.6% for the second.

Going from CCCCC(NC(=O)Cc1c(C)c2cc3c4c(oc3c(C)c2oc1=O)CCCC4)C(=O)O (stereo not shown) to CCCc1cc(=O)oc2c(C)c3occ(C)c3cc12, the “hERG current change (%, negative = inhibition) at 1uM” value falls from 12% to 2.66%.

Going from CN1CCC(N(C)C(=O)CCc2nc3ccccc3c(=O)[nH]2)CC1 to CCOC(=O)N1CCN(C(=O)Cn2c(=O)sc3ccccc32)CC1, the “hERG current change (%, negative = inhibition) at 1uM” value falls from 7.32% to 2.18%.

First: CCOC(=O)Cc1csc(N/N=C/c2ccccc2)n1
Second: CCOC(=O)Cc1csc(NC(=O)c2ccc(Cl)s2)n1
The “hERG current change (%, negative = inhibition) at 1uM” value of the first is lower: 4.06% for the first, 7.13% for the second.

Going from O=C(COc1ccccc1)NCC(=O)Nc1ccncc1 to COc1cccc(NC(=O)Nc2cc(C(=O)O)ccc2C)c1, the “hERG current change (%, negative = inhibition) at 1uM” value rises from -0.475% to 13.4%.

Compared with NC1=NC[C@H](c2ccccc2)N1CC1CCCCC1, O=C(NCC1CCCCC1)c1ccc(Cl)c(S(=O)(=O)N2CCOCC2)c1 is lower in “hERG current change (%, negative = inhibition) at 1uM” value: 8.49% for the first, -1.25% for the second.

Compared with Cl.O=C(O)c1cccc(Nc2nc(-c3cccnc3)nc3ccccc23)c1, COc1ccc(/C(=N\Nc2ccccc2C(=O)O)c2ccccc2)cc1 is higher in “hERG current change (%, negative = inhibition) at 1uM” value: 1.54% for the first, 6.96% for the second.

First: O=C(NNC(=O)C1CC1)c1cccc([N+](=O)[O-])c1
Second: CC(C)c1ccc2nc(NC(=O)C3CC3)sc2c1
The “hERG current change (%, negative = inhibition) at 1uM” value of the first is higher: 6.05% for the first, -4.59% for the second.

Going from O/C=c1\ccc2cccc3nc(C(F)(F)F)nc1c23 to FC(F)(F)c1nnc(-c2ccccc2)nc1Sc1ccc(Cl)cc1, the “hERG current change (%, negative = inhibition) at 1uM” value rises from 11.8% to 15.5%.

Going from O=C1OC(N2CCN(c3ccccn3)CC2)c2ccccc21 (stereo not shown) to O=C(c1ccc2nccnc2c1)N1CCN(c2ccccc2)CC1, the “hERG current change (%, negative = inhibition) at 1uM” value rises from 10% to 14.2%.

Going from COc1ccc(OC)c(C2CC(=O)N3CN(c4ccc(C)c(Cl)c4)CSC3=C2C#N)c1 (stereo not shown) to COc1ccc(CCNC(=O)c2ccc3c(c2)N(Cc2ccc(F)cc2)CCS3)c(OC)c1, the “hERG current change (%, negative = inhibition) at 1uM” value falls from 13.3% to 7.24%.

Going from CCOC(=O)C1CCCN(S(=O)(=O)c2ccc3c4c2CC(=O)N4CC(C)S3)C1 (stereo not shown) to Cc1cc(C)c(C(=O)COC(=O)C2CC3CCCC(C2)C3=O)c(C)c1 (stereo not shown), the “hERG current change (%, negative = inhibition) at 1uM” value falls from 14.3% to 5.52%.

Compared with NNC(=O)C(=O)Nc1ccc(O)cc1, CC(=O)c1ccccc1NC(=O)COC(=O)/C=C/c1cccs1 is higher in “hERG current change (%, negative = inhibition) at 1uM” value: 8.1% for the first, 17% for the second.

First: OCCNc1ncnc2c1cnn2Cc1ccccc1
Second: c1ccc(Cn2c(SCc3cn4cccnc4n3)nnc2-c2ccco2)cc1
The “hERG current change (%, negative = inhibition) at 1uM” value of the first is higher: 10.3% for the first, -0.242% for the second.

First: Cc1ccc(C2=NN(CCC(=O)NCCCN3CCOCC3)C(=O)CC2)cc1
Second: COCCNC(=O)CCCN1C(=O)c2ccccc2Sc2ncccc21
The “hERG current change (%, negative = inhibition) at 1uM” value of the first is lower: -9.94% for the first, 16.7% for the second.

First: CC1(C)Cc2c(c(N3CCOCC3)nc3sc4c(NCc5ccco5)nnnc4c23)CS1
Second: Cc1ccc(Nc2nc(N3CCOCC3)nc(N3CCOCC3)n2)cc1Cl.Cl
The “hERG current change (%, negative = inhibition) at 1uM” value of the first is higher: 11.5% for the first, 9.69% for the second.

Going from O=C(CSc1nnc(-c2ccccn2)o1)Nc1cccc(Cl)c1 to Cc1cc(-c2nnc(SCC(=O)Nc3ccc(C(F)(F)F)cc3)n2C)no1, the “hERG current change (%, negative = inhibition) at 1uM” value falls from 10.2% to 10%.

Compared with CCCCOCCCNC(=O)N[C@@H](CCSC)C(=O)OC, CC(C)CCNC(=O)CN(C(=O)CCC(=O)Nc1nccs1)C1CCCCC1 is lower in “hERG current change (%, negative = inhibition) at 1uM” value: 21% for the first, 3.83% for the second.

First: CC(=O)N1CCN(C(=O)/C(C#N)=C/c2ccc3c(c2)OCO3)CC1
Second: COc1ccccc1N1CCN(C(=O)NCc2cccc(C(F)(F)F)c2)CC1
The “hERG current change (%, negative = inhibition) at 1uM” value of the first is higher: 15.2% for the first, 1.45% for the second.

First: CC1(C)CC(=O)C=C(NNC(=O)OC(C)(C)C)C1
Second: Cc1c(C)c2c(OCC(=O)O)cc3c(c2oc1=O)CCC(C)(C)O3
The “hERG current change (%, negative = inhibition) at 1uM” value of the first is higher: 17.5% for the first, 15.5% for the second.

Going from Cc1cc(OC(=O)c2c(F)cc(F)cc2F)nc(C)n1 to CCOC(=O)c1c(CN2CCOCC2)n(-c2ccccc2)c2cc(Br)c(OC)cc12, the “hERG current change (%, negative = inhibition) at 1uM” value falls from 14.9% to 2.51%.

Compared with COCCN1C(=O)C(=O)/C(=C(/O)c2ccc(S(=O)(=O)N3CCOCC3)cc2)C1c1cccc(Cl)c1 (stereo not shown), CCOc1cccc(/C(O)=C2/C(=O)C(=O)N(CCOC)C2c2ccncc2)c1 (stereo not shown) is lower in “hERG current change (%, negative = inhibition) at 1uM” value: 9.26% for the first, 7.02% for the second.

Going from CC(C)CCNc1cc(=O)n(C)c(=O)n1C to COc1cc(OC)cc(C(=O)N[C@H](C(=O)OCC(=O)NC(=O)c2cccn2C)C(C)C)c1, the “hERG current change (%, negative = inhibition) at 1uM” value rises from -0.61% to 6.95%.

Compared with O=c1ccc(-c2ccc(S(=O)(=O)N3CCN(c4cccc(Cl)c4)CC3)o2)n[nH]1, CC(=O)c1ccc(N2CCN(S(=O)(=O)c3ccc4c(c3)NC(=O)CC(=O)N4)CC2)cc1 is higher in “hERG current change (%, negative = inhibition) at 1uM” value: 5.05% for the first, 11.5% for the second.

Compared with COc1cccc(C2/C(=C(\O)c3ccc(OC)c(OC)c3)C(=O)C(=O)N2c2cc(C)on2)c1 (stereo not shown), COc1ccccc1NC(=O)Cc1noc(CSc2cc(C)c3ccccc3n2)n1 is lower in “hERG current change (%, negative = inhibition) at 1uM” value: 10.9% for the first, -2.5% for the second.

First: CSC1=NP(=S)(SC)N(C)c2nc3n(c21)CCC3 (stereo not shown)
Second: Cc1cc(C)c(C)c(S(=O)(=O)N2CCN(C(=S)NCC3CCCO3)CC2)c1C (stereo not shown)
The “hERG current change (%, negative = inhibition) at 1uM” value of the first is higher: 8.73% for the first, 7.28% for the second.

First: O=C(NCc1ccco1)C(c1ccc(F)cc1)N(Cc1cccnc1)C(=O)Cn1nnc2ccccc21 (stereo not shown)
Second: O=C(NCC1CCCO1)C(c1ccc(F)cc1)N(CC1CCCO1)C(=O)c1ccc(-c2ccccc2)[nH]1 (stereo not shown)
The “hERG current change (%, negative = inhibition) at 1uM” value of the first is higher: 13% for the first, 2.32% for the second.

First: CC(CC(=O)N1CCc2ccccc21)n1cccn1 (stereo not shown)
Second: S=C(Nc1ccc(Cl)cc1)NC1CCN(Cc2ccccc2)CC1
The “hERG current change (%, negative = inhibition) at 1uM” value of the first is lower: 4.55% for the first, 4.81% for the second.

Going from N#C/C(=C/c1cccc(C(F)(F)F)c1)c1nc(CCN2C(=O)c3ccccc3C2=O)cs1 to O=c1cc(/C=C/c2ccccc2)oc2ccccc12, the “hERG current change (%, negative = inhibition) at 1uM” value rises from -1.46% to 6.42%.

First: CCCCc1[nH]c(=O)c(C#N)c2c1CCCC2
Second: Cc1ccc(Nc2ccc(C(=O)N3CCCC3)cn2)c(C)c1
The “hERG current change (%, negative = inhibition) at 1uM” value of the first is lower: -3.58% for the first, 7.57% for the second.

First: Cc1cc(-c2nnc3sc(C4CCCCC4)nn23)n[nH]1
Second: COc1cc(CN2CCN(c3cccc(C)c3C)CC2)cc(Br)c1O
The “hERG current change (%, negative = inhibition) at 1uM” value of the first is lower: -6.28% for the first, 1.25% for the second.

Compared with CC(C)CC(=O)Nc1c2c(nn1-c1ccc(F)cc1)CS(=O)(=O)C2, O=C(CSc1nnc(C2CC2)n1-c1ccccc1)NCCc1ccc(F)cc1 is lower in “hERG current change (%, negative = inhibition) at 1uM” value: 9.35% for the first, -0.787% for the second.

Going from COc1ccc(NS(=O)(=O)c2ccc3oc(SC)nc3c2)cc1 to COc1ccc(S(=O)(=O)N(C(=O)c2ccncc2)c2ccc(OC(=O)c3ccncc3)cc2)cc1, the “hERG current change (%, negative = inhibition) at 1uM” value rises from 1.11% to 6.3%.

Going from O=C1CNC(=O)/C1=C/c1ccc(Br)cc1 to CCOC(=O)CSc1nc(-c2ccccn2)ncc1OC, the “hERG current change (%, negative = inhibition) at 1uM” value falls from 10.1% to 5.74%.

In the case of CC1=NN(C(=O)c2ccc(Cn3nc(C)c([N+](=O)[O-])c3C)o2)C(O)(C(F)(F)F)C1 (stereo not shown), the “hERG current change (%, negative = inhibition) at 1uM” value was -14.6%.
